# According to paper PMC9458455 (Nucleic Acids Research, 2022):
# Read-outs that look alike come from different tables or passages of the source.
# Columns and labels:
# AUC [1] = target: the molecule itself; experiment: AUC
# AUC [2] = target: the molecule itself; experiment: AUC; remark: listed apart in the source
protein,measurement,setting,value
"translation elongation factor eEF1Bγ, full-length human (natural protein) not shown",stoichiometry N,AUC [1],4
same,stoichiometry N,AUC [2],2
